{"source": "paper PMC12820563", "about": "“FoxP3 forms a head-to-head dimer in vivo and stabilizes its multimerization on adjacent microsatellites”", "note": "The list shows a part of the results.", "data": [{"target": "T1, MBP-FoxP1dN (Mus musculus, UniProt P58462 326-579)", "T1 sequence": "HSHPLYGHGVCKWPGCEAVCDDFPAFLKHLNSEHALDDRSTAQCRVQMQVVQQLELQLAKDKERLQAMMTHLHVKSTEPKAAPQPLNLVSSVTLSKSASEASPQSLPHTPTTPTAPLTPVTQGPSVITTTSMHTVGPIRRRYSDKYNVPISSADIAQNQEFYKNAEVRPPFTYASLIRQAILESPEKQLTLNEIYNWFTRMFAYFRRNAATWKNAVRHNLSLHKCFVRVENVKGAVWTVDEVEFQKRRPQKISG", "assay": "PD-seq (MBP pull-down with sequencing); 20 mM Tris-HCl pH 7.5, 100 mM NaCl, 1.5 mM MgCl2, 0.4 uM protein, 0.1 uM dsDNA library, 30 min, room temperature, amylose pull-down; high values mean tight binding", "conditions": "protein: recombinant; tags: His6-MBP; chain copies: 2; dsDNA, one strand shown", "how_it_was_run": "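Amylose resin was used to capture complexes formed during 30 min at room temperature in Tris pH 7.5 buffer with NaCl and MgCl2 between 0.4 µM His6-MBP-tagged mouse FoxP3 or FoxP1 fragment lacking the N-terminus, expressed in E. coli, and 0.1 µM Klenow-filled double-stranded degenerate DNA library. After three washes, the DNA was released with proteinase K, barcoded by PCR and sequenced on Illumina. Binding is pooled-replicate reads-per-million enrichment, pull-down over input.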", "values": [{"sequence": "GATGATTGTTCTCCCAGCTGATGAATTGGACTGCTCGAGTAAACAAATTTTCCTAATCTTTCTGTTCAAGCGCCATCTAC", "binding signal": "0.752 RPM ratio (pull-down/input)"}, {"sequence": "GATGATTGTTCTCCCAGCTGATGAATTGTAACCGTCGAGTAAACAAATTTTCCTAATCTTTCTGTTCAAGCGCCATCTAC", "binding signal": "1.05 RPM ratio (pull-down/input)"}, {"sequence": "GATGATTGTTCTCCCAGCTGATGAATTTCTCGCTTCGAGTAAACAAATTTTCCTAATCTTTCTGTTCAAGCGCCATCTAC", "binding signal": "0.933 RPM ratio (pull-down/input)"}, {"sequence": "GATGATTGTTCTCCCAGCTGATGAATTTTGTGCGTCGAGTAAACAAATTTTCCTAATCTTTCTGTTCAAGCGCCATCTAC", "binding signal": "1.12 RPM ratio (pull-down/input)"}, {"sequence": "GATGATTGTTCTCCCAGCTGATGAATTCCGCGAGTCGAGTAAACAAATTTTCCTAATCTTTCTGTTCAAGCGCCATCTAC", "binding signal": "0.794 RPM ratio (pull-down/input)"}, {"sequence": "GATGATTGTTCTCCCAGCTGATGAATTGATTCGCTCGAGTAAACAAATTTTCCTAATCTTTCTGTTCAAGCGCCATCTAC", "binding signal": "0.933 RPM ratio (pull-down/input)"}, {"sequence": "GATGATTGTTCTCCCAGCTGATGAATTAAGTTATTCGAGTAAACAAATTTTCCTAATCTTTCTGTTCAAGCGCCATCTAC", "binding signal": "1.16 RPM ratio (pull-down/input)"}, {"sequence": "GATGATTGTTCTCCCAGCTGATGAATTCTGAAATTCGAGTAAACAAATTTTCCTAATCTTTCTGTTCAAGCGCCATCTAC", "binding signal": "0.893 RPM ratio (pull-down/input)"}, {"sequence": "GATGATTGTTCTCCCAGCTGATGAATTGCACATCTCGAGTAAACAAATTTTCCTAATCTTTCTGTTCAAGCGCCATCTAC", "binding signal": "1.21 RPM ratio (pull-down/input)"}, {"sequence": "GATGATTGTTCTCCCAGCTGATGAATTGATGGGATCGAGTAAACAAATTTTCCTAATCTTTCTGTTCAAGCGCCATCTAC", "binding signal": "0.903 RPM ratio (pull-down/input)"}, {"sequence": "GATGATTGTTCTCCCAGCTGATGAATTAGCGTTATCGAGTAAACAAATTTTCCTAATCTTTCTGTTCAAGCGCCATCTAC", "binding signal": "0.967 RPM ratio (pull-down/input)"}, {"sequence": "GATGATTGTTCTCCCAGCTGATGAATTGTTCTGCTCGAGTAAACAAATTTTCCTAATCTTTCTGTTCAAGCGCCATCTAC", "binding signal": "1.09 RPM ratio (pull-down/input)"}, {"sequence": "GATGATTGTTCTCCCAGCTGATGAATTCGCTAGGTCGAGTAAACAAATTTTCCTAATCTTTCTGTTCAAGCGCCATCTAC", "binding signal": "0.797 RPM ratio (pull-down/input)"}, {"sequence": "GATGATTGTTCTCCCAGCTGATGAATTCACAGTTTCGAGTAAACAAATTTTCCTAATCTTTCTGTTCAAGCGCCATCTAC", "binding signal": "0.889 RPM ratio (pull-down/input)"}, {"sequence": "GATGATTGTTCTCCCAGCTGATGAATTATAGACCTCGAGTAAACAAATTTTCCTAATCTTTCTGTTCAAGCGCCATCTAC", "binding signal": "0.856 RPM ratio (pull-down/input)"}, {"sequence": "GATGATTGTTCTCCCAGCTGATGAATTGTGCCCTTCGAGTAAACAAATTTTCCTAATCTTTCTGTTCAAGCGCCATCTAC", "binding signal": "1.05 RPM ratio (pull-down/input)"}, {"sequence": "GATGATTGTTCTCCCAGCTGATGAATTCTCTTGCTCGAGTAAACAAATTTTCCTAATCTTTCTGTTCAAGCGCCATCTAC", "binding signal": "0.822 RPM ratio (pull-down/input)"}, {"sequence": "GATGATTGTTCTCCCAGCTGATGAATTATGCATGTCGAGTAAACAAATTTTCCTAATCTTTCTGTTCAAGCGCCATCTAC", "binding signal": "1.18 RPM ratio (pull-down/input)"}, {"sequence": "GATGATTGTTCTCCCAGCTGATGAATTTTCCGAATCGAGTAAACAAATTTTCCTAATCTTTCTGTTCAAGCGCCATCTAC", "binding signal": "0.938 RPM ratio (pull-down/input)"}, {"sequence": "GATGATTGTTCTCCCAGCTGATGAATTTTGGTGGTCGAGTAAACAAATTTTCCTAATCTTTCTGTTCAAGCGCCATCTAC", "binding signal": "0.921 RPM ratio (pull-down/input)"}, {"sequence": "GATGATTGTTCTCCCAGCTGATGAATTGCGCGGATCGAGTAAACAAATTTTCCTAATCTTTCTGTTCAAGCGCCATCTAC", "binding signal": "1.02 RPM ratio (pull-down/input)"}, {"sequence": "GATGATTGTTCTCCCAGCTGATGAATTGAGTACGTCGAGTAAACAAATTTTCCTAATCTTTCTGTTCAAGCGCCATCTAC", "binding signal": "0.879 RPM ratio (pull-down/input)"}, {"sequence": "GATGATTGTTCTCCCAGCTGATGAATTGAGGTTTTCGAGTAAACAAATTTTCCTAATCTTTCTGTTCAAGCGCCATCTAC", "binding signal": "0.978 RPM ratio (pull-down/input)"}, {"sequence": "GATGATTGTTCTCCCAGCTGATGAATTGTGAAATTCGAGTAAACAAATTTTCCTAATCTTTCTGTTCAAGCGCCATCTAC", "binding signal": "1.08 RPM ratio (pull-down/input)"}, {"sequence": "GATGATTGTTCTCCCAGCTGATGAATTCTTTTGATCGAGTAAACAAATTTTCCTAATCTTTCTGTTCAAGCGCCATCTAC", "binding signal": "0.969 RPM ratio (pull-down/input)"}, {"sequence": "GATGATTGTTCTCCCAGCTGATGAATTTTACTTATCGAGTAAACAAATTTTCCTAATCTTTCTGTTCAAGCGCCATCTAC", "binding signal": "1.07 RPM ratio (pull-down/input)"}, {"sequence": "GATGATTGTTCTCCCAGCTGATGAATTTAATAACTCGAGTAAACAAATTTTCCTAATCTTTCTGTTCAAGCGCCATCTAC", "binding signal": "0.971 RPM ratio (pull-down/input)"}, {"sequence": "GATGATTGTTCTCCCAGCTGATGAATTAACGCTATCGAGTAAACAAATTTTCCTAATCTTTCTGTTCAAGCGCCATCTAC", "binding signal": "0.961 RPM ratio (pull-down/input)"}, {"sequence": "GATGATTGTTCTCCCAGCTGATGAATTAGGATAATCGAGTAAACAAATTTTCCTAATCTTTCTGTTCAAGCGCCATCTAC", "binding signal": "1.2 RPM ratio (pull-down/input)"}, {"sequence": "GATGATTGTTCTCCCAGCTGATGAATTTCGTTATTCGAGTAAACAAATTTTCCTAATCTTTCTGTTCAAGCGCCATCTAC", "binding signal": "1.01 RPM ratio (pull-down/input)"}, {"sequence": "GATGATTGTTCTCCCAGCTGATGAATTCAATCGGTCGAGTAAACAAATTTTCCTAATCTTTCTGTTCAAGCGCCATCTAC", "binding signal": "0.861 RPM ratio (pull-down/input)"}, {"sequence": "GATGATTGTTCTCCCAGCTGATGAATTAGTTCCGTCGAGTAAACAAATTTTCCTAATCTTTCTGTTCAAGCGCCATCTAC", "binding signal": "0.958 RPM ratio (pull-down/input)"}]}]}
